According to the supplement of paper PMC10126150:
Sequences with one replicate were seen in a single cluster, so their values are uncertain.

Tested on: ATP
Assay: switch fluorescence ratio, 500 uM ATP over buffer (Cy3 cluster intensity, sum of 5 cycles each) (fold (ratio)); higher = stronger signal-on switching upon ATP binding; sequences stand for … in TCGTCGGCAGCGTCAGATGTGTATAAGAGACAGTTTTTTTTTTTTTTTTTTTTTTTTT…TC
Settings: aptamer strand: ATP DNA aptamer (quencher-CACCTGGGGGAGTATTGCGGAGGAAGG + anchor), 100 nM annealed; ATP concentration: 500 uM; one replicate
Procedure, shortened: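 Five buffer/ATP imaging cycles were run on Cy3-labelled switching-strand clusters on a modified Illumina MiSeq flow-cell, with NaOH stripping and re-annealing between cycles. In each cycle, clusters annealed to 100 nM quencher-labelled ATP aptamer were imaged in selection buffer, then after 15 min with 500 uM ATP at 22 °C. Per cluster, the fluorescence ratio is summed target-cycle over summed buffer-cycle Cy3 intensity, averaged per switch-domain sequence. Only clusters within 100-1000 RFU were kept.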
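Further: ATP exposure 15 min at 22 °C before imaging.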

Sequence	switch fluorescence ratio
CAATCCCTAA	0.97
TTGCATCCAT	0.976
TGAGGAGTG	0.994
TTTGCTTGCT	1
CGTTCGGGGC	1.09
GGTGTCCTGA	0.975
AATAGAAAGC	0.984
CCAATATGGG	1.08
GCTTTGGTAA	0.974
ACGGGAATAG	1.38
ACATTATAGC	1.04
CTCCTCCTTG	1.38
TGCCTGAGGC	1.01
AGTTTGTTC	1.01
TTCTTTCTAT	1.2
ATTTGATTAA	0.974
GATTTAACAC	1.03
GAGGGCGGTC	1.06
AGGGATTCGG	0.985
GGGAGGAAAT	1.02
CTATTCGGCA	1.03
TTCCGTCGCA	4.63

Sequence	switch fluorescence ratio
AACTCAAAAT	1.03
TACCCTAGTC	1.07
TCCTCTTGTC	1.01
ATACTTGGGA	1.04
AGCTTCTATG	0.979
GTTTGACGAG	1
ATCGAAAATG	0.988
GCGAGATAAG	0.99
CTAGTAGCAG	0.959
AGAAATCTGA	1.09
ATCGAGGTAT	1.03
AGACTAGTGG	0.975
TGTGAAAGAA	0.977
AATTCTGGTC	1.1
CGGAATCAGC	1.08
TTCATGCAAG	1.02
CAAGCCTGC	1.05
AATTAAAGC	0.97
GACTGTGGGC	0.991
GGGGGCGTAG	1.06
TATCGTGCGG	1.05
GTGTACCGGG	0.985

Sequence	switch fluorescence ratio
AATTTATGAT	0.984
CCGGCATTTC	2.83
TGTTGGGT	1.04
TGAAGGATAT	1
AGCCCGCTAT	1
TGATCCTCTG	1
ATTGAACG	1.08
GCAGAACATC	1.03
GGGACTCTCG	0.956
GCCCGCGAGG	1.04
TCCGAGCGGG	1.39
TAAAGTGAGA	1
GAGTCAGTAG	1.06
CGTATCGGTT	0.939
TCAATTTCTT	0.942
TATATGGA	1.02
AGGCAGCACA	1.12
ATGGAACTTA	0.983
AACGTCAAA	1.07
GTTCCTATC	1
AAATGTTTAG	0.993
CACAGAAGC	1.06

Sequence	switch fluorescence ratio
CCCGGAACAA	1.52
CTCAATAACC	1.04
AGGTAAAATC	0.984
AGTTACCGCA	1.29
CAGCAAAAGA	1.04
CTGGTGCAGC	1.03
AGTGTATCTC	0.987
AGTTGAGGCT	0.966
GGATAGCCGT	0.97
CATATTGTAC	0.978
AGCGATTCA	0.989
AATTCGCATT	1.26
AATGTTGCCA	0.966
ATTTTAGTAT	1.01
GAGTGGCGT	0.967
GGACGGTAGC	1.1
GGTTTCTCAA	0.98
GAATGGGCGC	0.979
CGTGGGGCGT	1.05
